Assay results: PMC5350466 (mBio, 2017)

Test system: P. aeruginosa PAO1
Details: in vivo
Procedure: Larval infection assays were performed as previously described ([53]), with modifications. Overnight cultures were diluted in PBS, pH 7.4, with or without B. cenocepacia BCNs at a 1.5 µM final concentration to the following OD600s: B. cenocepacia and P. aeruginosa PAO1, 0.00004; K. pneumoniae Kpn18, 0.04; A. baumannii AB1, 0.4; S. aureus USA300, 0.004. The larvae were injected with 10 µl of the bacterial suspensions or sterile PBS (10 larvae/group in each experiment) with 10-µl MICROLITER syringes (Hamilton). The larvae were incubated at 30°C, and their viability was checked at regular time intervals. In similar assays, five larvae/group were sacrificed at 200 min postinfection and the hemolymph was extracted as previously described ([53]). The hemolymph was immediately serially diluted in PBS and plated on LB agar supplemented with 0.3% cetrimide or 200 µg/ml ampicillin–25 µg/ml PmB to quantify the CFU of P. aeruginosa PAO1 or B. cenocepacia, respectively, recovered from the infected larvae.

`Cc1c(C)c2c(c(C)c1O)CC[C@@](C)(CCC[C@H](C)CCC[C@H](C)CCCC(C)C)O2` [Vit E, α-tocopherol] was tested, and the “effect on survival advantage of P. aeruginosa in BcnA-treated larvae” value was “significantly reduced the survival advantage of P. aeruginosa”.
With menaquinone [Vit K2] the “effect on survival advantage of P. aeruginosa in BcnA-treated larvae” value was “significantly reduced the survival advantage of P. aeruginosa”.
